Experimental data as given in PMC4336329 (PLoS ONE, 2015).
Hit rate of the full screen: of about 310,000 compounds, about 14,000 (4.5%) showed an effect of 50% or more. The effect is printed as a negative number. This is one part of the list.
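Also: peak tail current of the secondary pulse compared with the same well before compound.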

The compounds below were run against human ether-à-go-go-related gene (hERG) potassium channel (human, UniProt Q12809) (assay: primary screen, population patch clamp on CHO cells stably expressing hERG).
human ether-à-go-go-related gene (hERG) potassium channel, sequence (Q12809 whole entry, looked up): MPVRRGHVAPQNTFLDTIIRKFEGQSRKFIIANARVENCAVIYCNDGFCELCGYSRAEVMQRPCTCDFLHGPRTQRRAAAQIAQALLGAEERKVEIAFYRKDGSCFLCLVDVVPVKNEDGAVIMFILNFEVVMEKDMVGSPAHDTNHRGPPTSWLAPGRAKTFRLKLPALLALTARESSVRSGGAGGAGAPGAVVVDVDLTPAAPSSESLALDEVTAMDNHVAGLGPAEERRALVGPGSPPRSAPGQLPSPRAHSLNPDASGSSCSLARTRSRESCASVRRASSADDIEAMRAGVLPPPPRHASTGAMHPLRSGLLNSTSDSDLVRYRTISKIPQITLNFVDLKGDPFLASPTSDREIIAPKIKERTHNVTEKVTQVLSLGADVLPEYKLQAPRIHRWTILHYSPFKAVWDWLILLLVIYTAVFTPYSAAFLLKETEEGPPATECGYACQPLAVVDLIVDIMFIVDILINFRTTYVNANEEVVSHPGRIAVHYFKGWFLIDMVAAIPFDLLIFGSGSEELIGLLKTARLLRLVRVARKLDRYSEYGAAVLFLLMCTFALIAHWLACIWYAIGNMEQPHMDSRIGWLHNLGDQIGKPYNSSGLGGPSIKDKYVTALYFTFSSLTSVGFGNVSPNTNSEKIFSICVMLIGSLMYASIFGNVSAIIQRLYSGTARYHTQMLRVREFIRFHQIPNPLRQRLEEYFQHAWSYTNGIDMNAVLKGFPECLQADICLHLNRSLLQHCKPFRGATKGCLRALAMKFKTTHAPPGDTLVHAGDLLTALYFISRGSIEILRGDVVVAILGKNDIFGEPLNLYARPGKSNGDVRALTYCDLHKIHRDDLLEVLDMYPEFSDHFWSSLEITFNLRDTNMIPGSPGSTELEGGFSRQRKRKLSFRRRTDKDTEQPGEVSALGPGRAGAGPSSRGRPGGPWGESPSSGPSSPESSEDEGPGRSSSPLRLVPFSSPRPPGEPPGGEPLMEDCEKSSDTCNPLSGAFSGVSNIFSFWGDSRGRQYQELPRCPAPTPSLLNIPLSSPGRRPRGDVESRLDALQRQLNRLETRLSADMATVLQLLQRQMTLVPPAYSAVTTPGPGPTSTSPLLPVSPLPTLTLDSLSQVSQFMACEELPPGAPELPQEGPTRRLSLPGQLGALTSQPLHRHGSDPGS
With `CCc1cc(C(=O)NNC(=S)Nc2ccccc2C)cs1` the “hERG current change (%, negative = inhibition) at 10uM” value was -4.76%. For `Cl.c1ccc2c(c1)oc1c(Nc3ccc4c(c3)OCCO4)ncnc12`, the “hERG current change (%, negative = inhibition) at 10uM” value was 5.01%. In the case of `O=C(Cc1ccccc1)NCC(=O)N/N=C/c1cccs1`, the “hERG current change (%, negative = inhibition) at 10uM” value is reported as 14.9%. In the case of `O=C(CSc1nnc(NC(=O)c2cccc(F)c2)s1)NCc1ccco1`, the “hERG current change (%, negative = inhibition) at 10uM” value is reported as 15.6%. `O=C(c1ccco1)N1CCN(C(=O)c2cccc3c2C(=O)N(C2CCCCC2)C3)CC1` was tested, and the “hERG current change (%, negative = inhibition) at 10uM” value was 2.99%. With `Cc1ccc(NC(=S)NC(=O)/C=C/c2ccc(Cl)cc2)cc1` the “hERG current change (%, negative = inhibition) at 10uM” value was 13%. For `Cc1ccc(C(=O)N/N=C/c2ccc3c(c2)OCO3)o1`, the “hERG current change (%, negative = inhibition) at 10uM” value was 1.02%. With `CN(C)N(C)C(=O)C(O)(c1ccccc1)c1ccccc1` the “hERG current change (%, negative = inhibition) at 10uM” value was -2.9%. In the case of `COc1ccc(S(=O)(=O)Nc2ccccc2C(=O)N2CCOCC2)cc1OC`, the “hERG current change (%, negative = inhibition) at 10uM” value is reported as 5.3%. With `CC(C)C(=O)NC(=S)Nc1ccccn1` the “hERG current change (%, negative = inhibition) at 10uM” value was 9.1%. `COc1ccc2c(c1)O[C@H](c1ccc3c(c1)OCO3)[C@@H](OC(=O)N[C@H]1CCCc3ccccc31)C2=O` was tested, and the “hERG current change (%, negative = inhibition) at 10uM” value was 7.06%. With `Nc1ncnc(Nc2cc(Cl)cc(Cl)c2)c1[N+](=O)[O-]` the “hERG current change (%, negative = inhibition) at 10uM” value was 16%. `CC(C)c1ccc(Nc2ncccc2C#N)cc1` was tested, and the “hERG current change (%, negative = inhibition) at 10uM” value was -5.45%. With `O=C(NCC(=O)N1CCN(c2ncccn2)CC1)c1cccs1` the “hERG current change (%, negative = inhibition) at 10uM” value was -7.28%. For `CCOc1ccc(Br)cc1S(=O)(=O)NC(=O)c1ccccc1`, the “hERG current change (%, negative = inhibition) at 10uM” value was 18.3%. For `Cc1ccc(CSCCNS(C)(=O)=O)cc1`, the “hERG current change (%, negative = inhibition) at 10uM” value was 13.4%. `Cc1cc(C)c[n+](CC(=O)c2ccc(NC(=O)c3ccccc3)cc2)c1.[Br-]` was tested, and the “hERG current change (%, negative = inhibition) at 10uM” value was 20.7%. `COc1ccc(OC)c(/C=N/NC(=O)c2c(C)nc3ccc(C)cn23)c1` was tested, and the “hERG current change (%, negative = inhibition) at 10uM” value was 10.4%. In the case of `CC(=O)c1c(-c2ccccc2)c2cc(Cl)ccc2n(C)c1=O`, the “hERG current change (%, negative = inhibition) at 10uM” value is reported as -10.6%. For `Cc1noc(/C=C/c2cccnc2)c1[N+](=O)[O-]`, the “hERG current change (%, negative = inhibition) at 10uM” value was 3.41%. With `CCCN1C(=O)c2ccccc2NC1c1ccc(OC)cc1O` (centres unmarked) the “hERG current change (%, negative = inhibition) at 10uM” value was -10.3%. For `CCN(CC)C(=O)C1CCN(S(=O)(=O)c2ccc3c(c2)CCCN3C(=O)C2CCC2)CC1`, the “hERG current change (%, negative = inhibition) at 10uM” value was 5.02%. For `Cc1cc(NC(=O)CCCC(=O)OCC(F)(F)C(F)F)cc(C)c1C(=O)O`, the “hERG current change (%, negative = inhibition) at 10uM” value was 20.1%. In the case of `CCC(C)(C)C1CCc2[nH]nc(C(=O)NN)c2C1` (centres unmarked), the “hERG current change (%, negative = inhibition) at 10uM” value is reported as 14.7%. With `Cc1cc(C(=O)OCC(=O)Nc2cccc(S(=O)(=O)N3CCOCC3)c2)c(C)o1` the “hERG current change (%, negative = inhibition) at 10uM” value was -19.6%. With `COc1cccc(-c2nn(-c3ccccc3)cc2/C=C(/NC(=O)c2ccccc2)C(=O)O)c1` the “hERG current change (%, negative = inhibition) at 10uM” value was 24.1%. In the case of `Cc1cccc2nc(COc3ccc(Cl)c4cccnc34)cn12`, the “hERG current change (%, negative = inhibition) at 10uM” value is reported as -16.7%. `O=C(Nc1ccc(S(=O)(=O)N2CCOCC2)cc1)c1ccc(CN2CCc3ccccc3C2)cc1` was tested, and the “hERG current change (%, negative = inhibition) at 10uM” value was 3.89%. In the case of `CC(C)c1cc(C(=O)Nc2sc3c(c2C#N)CCC3)no1`, the “hERG current change (%, negative = inhibition) at 10uM” value is reported as 7.49%. With `O=C(Nc1ccc(S(=O)(=O)N2CCOCC2)cc1)c1cc(S(=O)(=O)N2CCOCC2)ccc1Cl` the “hERG current change (%, negative = inhibition) at 10uM” value was 17.4%. `Cc1ccc(C(C(=O)Nc2ccc(C(C)C)cc2)N(C)C(=O)c2ccc(=O)[nH]c2)cc1` (centres unmarked) was tested, and the “hERG current change (%, negative = inhibition) at 10uM” value was 12.6%. With `NC1=C([N+](=O)[O-])C(c2ccc(F)cc2)C2=C(CCCC2=O)O1` (centres unmarked) the “hERG current change (%, negative = inhibition) at 10uM” value was 8.77%. With `CC(=O)Nc1cccc2c1Cc1ccccc1-2` the “hERG current change (%, negative = inhibition) at 10uM” value was 10.8%. In the case of `c1ccc(CN2CCC(Nc3nc(-c4cccnc4)nc4ccccc34)CC2)cc1`, the “hERG current change (%, negative = inhibition) at 10uM” value is reported as -80.5%. With `Cc1cccn2c(=O)c3cc(C(N)=S)c(=N)n(CCCN4CCOCC4)c3nc12` the “hERG current change (%, negative = inhibition) at 10uM” value was -87.6%. With `COc1cc(C2C(S(=O)(=O)c3ccccc3)CON2C)ccc1OCc1ccc(F)cc1` (centres unmarked) the “hERG current change (%, negative = inhibition) at 10uM” value was 6.66%. With `C/C(=N\NC(=O)c1c(C)nc2ccccn12)c1ccc(O)cc1O` the “hERG current change (%, negative = inhibition) at 10uM” value was 7.77%. With `CCCCNC(=O)Oc1ccc(C(=O)N2c3ccccc3NC(=O)C2C)cc1` (centres unmarked) the “hERG current change (%, negative = inhibition) at 10uM” value was 0.0121%. `CC1=C(C(=O)OCC2CCCCC2)C(c2cccc(O)c2)NC(=O)N1` (centres unmarked) was tested, and the “hERG current change (%, negative = inhibition) at 10uM” value was -9.54%. With `Oc1ccccc1-n1c(-c2ccccc2)ccc1-c1ccccc1` the “hERG current change (%, negative = inhibition) at 10uM” value was 11.8%. With `O=C(Nc1cccc2c1C(=O)NC2=O)c1ccc(N2C(=O)CCC2=O)cc1` the “hERG current change (%, negative = inhibition) at 10uM” value was 7.66%. With `Cc1ccccc1NC(=O)c1c([N+](=O)[O-])c(C(C)(C)C)nn1C` the “hERG current change (%, negative = inhibition) at 10uM” value was -12.2%. With `Cc1ccc(N2C(=O)N(CC(=O)NCc3ccc(Cl)cc3)C(=O)C2C)cc1` (centres unmarked) the “hERG current change (%, negative = inhibition) at 10uM” value was -21.3%. `CC1CCCN(Cc2nc3c(c(=O)n(C)c(=O)n3C)n2CC(N)=O)C1` (centres unmarked) was tested, and the “hERG current change (%, negative = inhibition) at 10uM” value was 5.82%.
